# Experimental data reported in a collection of fitness landscapes (doi:10.1126/science.1257360).
# The list shows a part of the results.
# B1: PhoQ; a variant is named by its letters at X, in order, P23837 (parent)
# chain: MKKLLRLFFPLSLRVRFLLATAAVVLVLSLAYGMVALIGYSVSFDKTTFRLLRGESNLFYTLAKWENNKLHVELPENIDKQSPTMTLIYDENGQLLWAQRDVPWLMKMIQPDWLKSNGFHEIEADVNDTSLLLSGDHSIQQQLQEVREDDDDAEMTHSVAVNVYPATSRMPKLTIVVVDTIPVELKSSYMVWSWFIYVLSANLLLVIPLLWVAAWWSLRPIEALAKEVRELEEHNRELLNPATTRELTSLVRNLNRLLKSERERYDKYRTTLTDLTHSLKTPLXXLQXXLRSLRSEKMSVSDAEPVMLEQISRISQQIGYYLHRASMRGGTLLSRELHPVAPLLDNLTSALNKVYQRKGVNISLDISPEISFVGEQNDFVEVMGNVLDNACKYCLEFVEISARQTDEHLYIVVEDDGPGIPLSKREVIFDRGQRVDTLRPGQGVGLAVAREITEQYEGKIVAGESMLGGARMEVIFGRQHSAPKDE
# Variants of: B1
# Experiment: enrichment ratio after two sorts for PhoP signalling (ratio (wild type AVST 3.29)); higher = more functional
# Details: with PhoP (E. coli)
row,Variant,enrichment ratio
1,QVPI,≤ 0.25
2,EPTF,≤ 0.25
3,AFDF,≤ 0.25
4,PVEF,≤ 0.25
5,RNIP,≤ 0.25
6,LSQF,≤ 0.25
7,DIAL,≤ 0.25
8,YVRC,≤ 0.25
9,DPIY,≤ 0.25
10,KGVN,≤ 0.25
11,KKRD,≤ 0.25
12,QGYQ,13.9
13,GKGT,≤ 0.25
14,GNWI,≤ 0.25
15,VAFH,≤ 0.25
16,PHFG,≤ 0.25
17,QMWR,≤ 0.25
18,MAGE,≤ 0.25
19,GFSQ,≤ 0.25
20,THWC,≤ 0.25
21,DGCR,≤ 0.25
22,TGVT,1.96
23,SEWG,17.3
24,YGQH,≤ 0.25
25,FKPD,≤ 0.25

row,Variant,enrichment ratio
1,YMRK,≤ 0.25
2,SCYY,0.284
3,QQGW,≤ 0.25
4,FGYW,≤ 0.25
5,KQQW,≤ 0.25
6,NNIR,≤ 0.25
7,DDLR,≤ 0.25
8,EPRR,≤ 0.25
9,KSQF,≤ 0.25
10,RVCY,≤ 0.25
11,YSMP,≤ 0.25
12,GEYH,≤ 0.25
13,VYNT,≤ 0.25
14,LWHL,0.31
15,IVTT,≤ 0.25
16,SGLV,17.9
17,VDMK,≤ 0.25
18,KICG,≤ 0.25
19,MPSF,≤ 0.25
20,GKKH,≤ 0.25
21,RYEQ,≤ 0.25
22,YFVS,≤ 0.25
23,KFYL,≤ 0.25
24,SWQI,≤ 0.25
25,MSIN,≤ 0.25

row,Variant,enrichment ratio
1,NMPE,≤ 0.25
2,RPAW,≤ 0.25
3,NGVV,≤ 0.25
4,YEEL,≤ 0.25
5,IETE,≤ 0.25
6,FWVH,≤ 0.25
7,NLID,≤ 0.25
8,GDTM,4.42
9,FHCW,≤ 0.25
10,TACI,22.6
11,QSFD,≤ 0.25
12,HMNI,≤ 0.25
13,QNFD,≤ 0.25
14,IMYR,≤ 0.25
15,DKWC,≤ 0.25
16,TSFN,1.62
17,PPIS,≤ 0.25
18,DLHW,≤ 0.25
19,WALQ,4.15
20,SRAC,≤ 0.25
21,RDFP,≤ 0.25
22,RRMD,≤ 0.25
23,VKKF,≤ 0.25
24,KEMV,≤ 0.25
25,ISCS,≤ 0.25

row,Variant,enrichment ratio
1,DLDF,≤ 0.25
2,ISRT,≤ 0.25
3,TTQM,12.5
4,QVLP,≤ 0.25
5,HKQP,≤ 0.25
6,QFSR,≤ 0.25
7,FPFM,≤ 0.25
8,PGQT,≤ 0.25
9,TRWF,≤ 0.25
10,FDPC,≤ 0.25
11,WLFR,≤ 0.25
12,FNDG,≤ 0.25
13,RGAL,0.701
14,TFCI,1.31
15,AKDA,≤ 0.25
16,DGES,≤ 0.25
17,FDNA,≤ 0.25
18,HGYP,2.24
19,YRVM,≤ 0.25
20,HSKV,≤ 0.25
21,DIWD,≤ 0.25
22,QCNP,≤ 0.25
23,AKMM,30.4
24,IDME,≤ 0.25
25,SFRR,≤ 0.25

row,Variant,enrichment ratio
1,MFEW,≤ 0.25
2,KQMV,≤ 0.25
3,PIFT,≤ 0.25
4,PYVI,≤ 0.25
5,NAWR,≤ 0.25
6,WECY,≤ 0.25
7,PPYE,≤ 0.25
8,PQSI,≤ 0.25
9,DKNP,≤ 0.25
10,SWAN,≤ 0.25
11,LEEL,≤ 0.25
12,QMIY,≤ 0.25
13,RILN,≤ 0.25
14,ETDP,≤ 0.25
15,RMML,≤ 0.25
16,PKAI,≤ 0.25
17,TRWT,≤ 0.25
18,IAST,≤ 0.25
19,TTVT,1.12
20,IHLR,≤ 0.25
21,KFTA,≤ 0.25
22,WYTP,≤ 0.25
23,EESK,≤ 0.25
24,EPLA,≤ 0.25
25,TTTY,5.49

row,Variant,enrichment ratio
1,KKPC,≤ 0.25
2,RQTT,≤ 0.25
3,RNGW,≤ 0.25
4,GHHP,≤ 0.25
5,GWVM,≤ 0.25
6,TCME,≤ 0.25
7,DATN,≤ 0.25
8,RHLT,≤ 0.25
9,SVVD,≤ 0.25
10,FNCI,≤ 0.25
11,PWKQ,≤ 0.25
12,ELDI,≤ 0.25
13,DCCG,≤ 0.25
14,KDNP,≤ 0.25
15,PQIL,≤ 0.25
16,TYME,≤ 0.25
17,SNTD,≤ 0.25
18,PMRD,≤ 0.25
19,QTFC,≤ 0.25
20,SFFS,≤ 0.25
21,GVPL,≤ 0.25
22,GPTY,≤ 0.25
23,FLAR,≤ 0.25
24,FFWI,≤ 0.25
25,MTWY,21.6

row,Variant,enrichment ratio
1,GNWH,≤ 0.25
2,REMG,≤ 0.25
3,TGNQ,4.5
4,SSLM,17.1
5,DHHN,≤ 0.25
6,PGHF,≤ 0.25
7,MMNT,≤ 0.25
8,EEFS,≤ 0.25
9,EFCV,≤ 0.25
10,RAMM,≤ 0.25
11,GAMM,14.4
12,DDIV,≤ 0.25
13,QMNS,≤ 0.25
14,PKHT,≤ 0.25
15,FAHG,≤ 0.25
16,QQKT,≤ 0.25
17,PELN,≤ 0.25
18,SHGQ,≤ 0.25
19,FDIA,≤ 0.25
20,RHLE,≤ 0.25
21,PVMT,≤ 0.25
22,FGCC,13.2
23,DAMG,≤ 0.25
24,AHFW,≤ 0.25
25,AQHY,≤ 0.25

row,Variant,enrichment ratio
1,TYVY,≤ 0.25
2,GINR,≤ 0.25
3,RTMN,≤ 0.25
4,HDSG,≤ 0.25
5,ICMQ,≤ 0.25
6,KSFH,≤ 0.25
7,FLTY,≤ 0.25
8,TKFT,≤ 0.25
9,DRFC,≤ 0.25
10,SDFY,≤ 0.25
11,DMVI,≤ 0.25
12,AFSQ,≤ 0.25
13,KPCQ,≤ 0.25
14,TFRQ,≤ 0.25
15,IPEL,≤ 0.25
16,VPDM,≤ 0.25
17,NLMM,≤ 0.25
18,DTAM,≤ 0.25
19,SCFT,≤ 0.25
20,AWHD,24.7
